The values below come from PMC6212790.

This is one part of the list. At the low end of the ranking the order means little.

This assay has as its target T1, GST-Rok (full length) (UniProt O34857).
T1 sequence: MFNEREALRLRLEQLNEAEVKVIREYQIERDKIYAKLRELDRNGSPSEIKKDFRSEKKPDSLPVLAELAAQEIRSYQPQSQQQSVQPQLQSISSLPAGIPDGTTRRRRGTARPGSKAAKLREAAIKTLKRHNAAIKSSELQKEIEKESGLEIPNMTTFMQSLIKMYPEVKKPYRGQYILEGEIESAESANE
Description: protein binding microarray.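 Further: rank score from −0.5 (least bound) to 0.5 (best bound).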 The note with it: Rok is a gene silencer of Bacillus subtilis; high values mean tight binding; most listed sequences are background and not binding sites; double strand, one strand shown.
AAGTTAGG: the binding signal is 0.125 E-score.

TAGATGGA displayed a binding signal of -0.0691 E-score. Then TAGTGCAA, with 0.225 E-score. Regarding CACGGAGC, the binding signal is -0.103 E-score. As for CAGCCCTC, the binding signal was -0.241 E-score. The result for CTAGGAAA reads 0.0106 E-score. The result for CAGCTATC reads 0.00359 E-score; that for CCTGTATC, 0.00402 E-score. On to CGTAAGAA, for which the binding signal is 0.0442 E-score. For the sequence AGTCGATG, the binding signal was 0.0219 E-score. For TGTGTCAA, the binding signal is -0.102 E-score. TGTAGACA had a binding signal of 0.159 E-score. Then GTGCAGTA, with 0.317 E-score; and CCGTTGAA, with 0.00615 E-score; and AGCTAAAA, with 0.15 E-score. Sequence CGAATGCA showed a binding signal of -0.00835 E-score.

Regarding TGGGTGAA, the binding signal was found to be 0.132 E-score. In the case of AATACGTG, the binding signal was 0.202 E-score.

In the case of CAGCCTGG, the binding signal was -0.226 E-score. In the case of GCGATAAA, the binding signal is 0.182 E-score. The result for ACATCCTA reads 0.222 E-score; that for TAATGATA, 0.225 E-score. Then AACACAGT, with -0.00279 E-score. Then CCGCCAAG, with -0.31 E-score; and ACCATACG, with 0.0631 E-score.

As to ACGCTGTC, the binding signal was -0.0854 E-score. CGTCTCCA: the binding signal is -0.107 E-score.

For CTCAGTTA, the binding signal turned out to be 0.0853 E-score. In the case of CGCGGATC, the binding signal was 0.00436 E-score. Take CCATTGGC: the binding signal is -0.199 E-score. Then AACCCATG, with 0.0717 E-score; and GCCGTTTA, with -0.159 E-score. On to GAATTGAC, for which the binding signal worked out at 0.0331 E-score. AGAAAGCA showed a binding signal of -0.038 E-score. Then CCGTTGCC, with -0.292 E-score. For the sequence ACCGTGCA, the binding signal worked out at 0.204 E-score. CTAGGTTC had a binding signal of 0.115 E-score.

Sequence GAAGGCAA gave a binding signal of -0.277 E-score. CCGGACAC returned a binding signal of 5.9e-05 E-score. Then GTCTAGTA, with 0.174 E-score; and CCTCATAA, with -0.103 E-score; and GACAGAAC, with -0.0014 E-score.

As for AGTTATTG, the binding signal came out at 0.285 E-score. On to CTACGAAA, for which the binding signal was 0.142 E-score. Then GTAATAGA, with 0.257 E-score.

GGTACAAC displayed a binding signal of -0.0759 E-score. The result for AAAGCTCC reads -0.0639 E-score. Then CGACCAAC, with -0.166 E-score; and AGCGTGCG, with -0.149 E-score. Sequence ACTTTACT returned a binding signal of 0.179 E-score. With CTGCGAAA, the binding signal is -0.125 E-score. In turn, CTAGCGCC registered a binding signal of -0.19 E-score. Sequence CGGTCTAA returned a binding signal of -0.00451 E-score.

Sequence CCCTATGA gave a binding signal of -0.11 E-score.

CCGAGTGA: the binding signal was -0.183 E-score. Consider CCCTAGAA, for which the binding signal was -0.0316 E-score.

As to ACACGCGT, the binding signal came to 0.153 E-score.

For ATCTCACG, the binding signal is -0.0282 E-score. Then AATCATGC, with 0.00628 E-score; and AGTTTAAA, with 0.16 E-score; and AGACAAAG, with -0.0603 E-score.

For CGGTAACC, the binding signal is -0.0601 E-score. Then ATCGATCG, with 0.0887 E-score; and CCTTACCC, with -0.241 E-score; and GAGCTCGA, with 0.0487 E-score. Consider GGTGTTCA, for which the binding signal was -0.0432 E-score.

GCCGCCTA gave a binding signal of -0.131 E-score. In the case of ACCGCCCG, the binding signal is -0.224 E-score. Then ATAGACAC, with 0.111 E-score; and CGAGGAAC, with -0.158 E-score; and ATCGTTAA, with 0.103 E-score. On to ACCTTTAA, for which the binding signal was 0.053 E-score. Then AGCACACT, with -0.0547 E-score; and ATGTACGC, with 0.143 E-score; and GCTCAACA, with -0.187 E-score.

The sequence CGCCAGAG displayed a binding signal of -0.265 E-score.

For the sequence AAAGAGTG, the binding signal is -0.0742 E-score. GATGATCC: the binding signal is -0.0833 E-score.

ACACGAAC registered a binding signal of 0.162 E-score. In the case of CCCTACTA, the binding signal was -0.0153 E-score.

In turn, TTGATCAA came in with a binding signal of 0.164 E-score. Then AAAAGTAC, with 0.239 E-score; and GTCACTCA, with 0.0147 E-score; and CTCACAAG, with -0.0773 E-score. Sequence CTTGTTTA showed a binding signal of 0.0282 E-score. The result for TTAGCCAA reads 0.0979 E-score; that for TCCTGTCA, -0.127 E-score; that for ACCGTCCT, -0.0322 E-score. Then AATACGCG, with 0.216 E-score; and AGTATTAT, with 0.358 E-score. CTCGAAAG registered a binding signal of -0.0828 E-score. ATAACCCA gave a binding signal of 0.0794 E-score. Then ACATTCCG, with 0.267 E-score; and ATGTAGGC, with -0.0373 E-score; and GTGAGGTA, with 0.255 E-score. Then CCATACAA, with 0.172 E-score. For CCTCGACA, the binding signal was -0.211 E-score. The result for CACAACTC reads 0.0125 E-score; that for CTTCCGAC, -0.223 E-score.

Turning to ATAACAGC, the binding signal is 0.134 E-score.

In the case of AACCCTGA, the binding signal is -0.274 E-score. As for GAGAAGGC, the binding signal was -0.293 E-score. The result for ATCGGCCC reads -0.172 E-score. In turn, GACCTACA came in with a binding signal of -0.0845 E-score. With AGACTGAG, the binding signal is -0.0917 E-score.

Take CCCCTATC: the binding signal is -0.328 E-score. Then CTATGGAA, with 0.146 E-score; and GCATCCAC, with -0.0472 E-score.

For the sequence AATCGTAC, the binding signal stood at 0.137 E-score. CGCTTCTA gave a binding signal of 0.0526 E-score.

For the sequence AACTATTG, the binding signal is 0.378 E-score. On to ACCGCAGG, for which the binding signal is -0.0907 E-score. Then CAAATGCC, with -0.104 E-score. On to TGGTATAA, for which the binding signal was found to be 0.349 E-score. The result for CCCGGAAA reads -0.265 E-score; that for GAACGGCC, -0.285 E-score. In turn, ATGACCCC showed a binding signal of -0.171 E-score.

TGCACTAA had a binding signal of 0.0805 E-score. With CATGAGTC, the binding signal is -0.193 E-score. In turn, ACAGAGTA returned a binding signal of 0.18 E-score. Then CAACTGAA, with -0.0305 E-score.

CCGTAAGC yielded a binding signal of -0.0766 E-score.

In the case of TGGTACCA, the binding signal was 0.193 E-score.

On to GGCTTAAA, for which the binding signal was -0.231 E-score.

Turning to GCAATCAA, the binding signal was determined as 0.134 E-score.

In turn, ACTCCGCT yielded a binding signal of -0.165 E-score. Then AGGTTTCC, with -0.176 E-score; and CAAGGTTA, with -0.0876 E-score; and CCGAGTAA, with -0.0984 E-score. Then GTACGGAC, with -0.173 E-score; and AGCCCAGC, with -0.348 E-score; and GAAGACAA, with -0.0645 E-score. The sequence ATCCACCG yielded a binding signal of -0.155 E-score. The result for CGTGATAC reads 0.162 E-score.

ATCTCTCC: the binding signal was -0.305 E-score.

As for ACGGGGAT, the binding signal is -0.0788 E-score.

Consider AGCCGGTG, for which the binding signal is -0.286 E-score. In turn, GGCTGTGA displayed a binding signal of 0.0813 E-score.

Sequence GAAGAGTC came in with a binding signal of -0.192 E-score. For CCACTCAA, the binding signal is -0.0115 E-score. Sequence GCAGGTGA yielded a binding signal of -0.153 E-score. Then ACACCGAC, with -0.161 E-score. Then CGCGGATA, with 0.00827 E-score; and ATTACTCA, with 0.146 E-score; and TGAAGGAA, with -0.208 E-score.

AGAAACTA registered a binding signal of 0.412 E-score.

On to GACCTGCC, for which the binding signal is -0.309 E-score. In the case of CTTGATCA, the binding signal was -0.0908 E-score. The result for TCCCAAAA reads -0.171 E-score; that for GAGGCGGA, -0.273 E-score; that for ATCCAGAC, 0.0452 E-score.

In turn, GACAGATC returned a binding signal of 0.00698 E-score. Then CTTATCTC, with 0.119 E-score; and AATTGCTC, with 0.0773 E-score; and GTAAATTA, with 0.383 E-score. GGGGAAGA showed a binding signal of -0.302 E-score.

Consider CGTCTGGC, for which the binding signal is -0.12 E-score.

Sequence ACACTAGC registered a binding signal of 0.0206 E-score. GTACAAGA: the binding signal was determined as 0.152 E-score. For the sequence ATATGATA, the binding signal came to 0.179 E-score. Then ACAGATCA, with -0.0542 E-score; and ACCCGTCG, with -0.107 E-score.

With ACGACATC, the binding signal came out at 0.0179 E-score.

With TGGGGGAA, the binding signal is -0.34 E-score. Then TCAAAGGA, with -0.135 E-score.

For the sequence CCGCAGTA, the binding signal is -0.0372 E-score. Then AGGGTTAA, with 0.0656 E-score.

Consider AGCGCTCC, for which the binding signal is -0.178 E-score.

On to ATATGAAA, for which the binding signal came to 0.222 E-score. AGCAAGAA yielded a binding signal of 0.052 E-score. The result for CTCGCCTC reads -0.304 E-score; that for GTAGGCGA, -0.178 E-score.
